# Assay results as given in the supplement of paper PMC8728848.
# This is one part of the list.
# Experiments:
# Assay in all cases: glycan array binding signal (z-score within array); higher = stronger binding
# Settings in all cases: glycan notation: IUPAC condensed, linker removed
# [1] = biological target: GalNAc(a1-3)GalNAc(b1-3)Gal(a1-4)Gal(b1-4)GlcNAc
# In short: (§1)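 Glycan array data came from 3228 arrays in the Consortium for Functional Glycomics database, and only arrays with an available protein sequence were kept. Glycan names were put into IUPAC-condensed notation, and columns mapping to the same glycan were averaged. The binding signal is a within-array Z-score, averaged across arrays of one protein sequence run at different concentrations or buffers and across linkers. A negative Z-score can be read as non-binding.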
# GalNAc(b1-3)Gal = biological target: GalNAc(b1-3)Gal
# In short: as §1
# [2] = biological target: GalNAc(b1-3)Gal(a1-4)Gal(b1-4)GlcNAc
# In short: as §1
# [3] = biological target: GalNAc(b1-3)Gal(a1-4)Gal(b1-4)GlcNAc(b1-3)Gal(b1-4)Glc
# In short: as §1
# [4] = biological target: GalNAc(b1-3)Gal(a1-6)Gal(b1-4)Glc
# In short: as §1
# GalNAc(b1-3)GalNAc = biological target: GalNAc(b1-3)GalNAc
# In short: as §1
# GalNAc(b1-3)GlcNAc = biological target: GalNAc(b1-3)GlcNAc
# In short: as §1
# GalNAc(b1-4)Gal(b1-4)Glc = biological target: GalNAc(b1-4)Gal(b1-4)Glc
# In short: as §1
# GalNAc(b1-4)GlcNAc = biological target: GalNAc(b1-4)GlcNAc
# In short: as §1
# [5] = biological target: GalNAc(b1-4)GlcNAc(b1-2)Man
# In short: as §1
# [6] = biological target: GalNAc(b1-4)GlcNAc(b1-2)Man(a1-3)[GalNAc(b1-4)GlcNAc(b1-2)Man(a1-6)]Man(b1-4)GlcNAc(b1-4)GlcNAc
# In short: as §1
# [7] = biological target: GalNAc(b1-4)GlcNAc(b1-3)GalNAc(b1-4)GlcNAc
# In short: as §1
# GalNAc(b1-4)GlcNAc6S = biological target: GalNAc(b1-4)GlcNAc6S
# In short: as §1
# GalNAc(b1-6)GalNAc = biological target: GalNAc(b1-6)GalNAc
# In short: as §1
# GalNAc3S(b1-4)GlcNAc = biological target: GalNAc3S(b1-4)GlcNAc
# In short: as §1
# GalNAc3S(b1-4)GlcNAc3S = biological target: GalNAc3S(b1-4)GlcNAc3S
# In short: as §1
# [8] = biological target: GalNAc3S(b1-4)[Fuc(a1-3)]GlcNAc
# In short: as §1
# GalNAc4S6S(b1-4)GlcNAc = biological target: GalNAc4S6S(b1-4)GlcNAc
# In short: as §1
# GalNAc6S(b1-4)GlcNAc = biological target: GalNAc6S(b1-4)GlcNAc
# In short: as §1
# Glc(a1-4)Glc = biological target: Glc(a1-4)Glc
# In short: as §1
# [9] = biological target: Glc(a1-4)Glc(a1-4)Glc(a1-4)Glc
# In short: as §1
# Glc(a1-6)Glc(a1-6)Glc = biological target: Glc(a1-6)Glc(a1-6)Glc
# In short: as §1
# [10] = biological target: Glc(a1-6)Glc(a1-6)Glc(a1-6)Glc
# In short: as §1
# Glc(b1-4)Glc = biological target: Glc(b1-4)Glc
# In short: as §1
# Glc(b1-6)Glc = biological target: Glc(b1-6)Glc
# In short: as §1
# GlcA(b1-3)Gal = biological target: GlcA(b1-3)Gal
# In short: as §1
# GlcA(b1-3)GlcNAc = biological target: GlcA(b1-3)GlcNAc
# In short: as §1
# GlcA(b1-6)Gal = biological target: GlcA(b1-6)Gal
# In short: as §1
# [11] = biological target: GlcA3S(b1-3)Gal(b1-4)GlcNAc(b1-2)Man
# In short: as §1
# [12] = biological target: GlcA3S(b1-3)Gal(b1-4)GlcNAc(b1-3)Gal(b1-4)Glc
# In short: as §1
# [13] = biological target: GlcNAc(a1-3)Gal(b1-4)GlcNAc
# In short: as §1
# [14] = biological target: GlcNAc(a1-4)Gal(b1-3)GlcNAc
# In short: as §1
# [15] = biological target: GlcNAc(a1-4)Gal(b1-4)GalNAc
# In short: as §1
# [16] = biological target: GlcNAc(a1-4)Gal(b1-4)GlcNAc
# In short: as §1
# [17] = biological target: GlcNAc(a1-4)Gal(b1-4)GlcNAc(b1-3)Gal(b1-4)Glc
# In short: as §1
# [18] = biological target: GlcNAc(a1-4)Gal(b1-4)GlcNAc(b1-3)Gal(b1-4)GlcNAc
# In short: as §1
# [19] = biological target: GlcNAc(a1-4)Gal(b1-4)GlcNAc(b1-3)Gal(b1-4)GlcNAc(b1-3)Gal(b1-4)GlcNAc
# In short: as §1
# [20] = biological target: GlcNAc(a1-4)Gal(b1-4)GlcNAc(b1-3)Gal(b1-4)[Fuc(a1-3)]GlcNAc(b1-3)Gal(b1-4)[Fuc(a1-3)]GlcNAc
# In short: as §1
binder,measurement,setting,value
DC-ASGPR Long (Homo sapiens) (protein) MTRTYENFQYLENKVKVQGFKNGPLPLQSLLQRLRSGPCHLLLSLGLGLLLLVIICVVGFQNSKFQRDLVTLRTDFSNFTSNTVAEIQALTSQGSSLEETIASLKAEVEGFKQERQAGVSELQEHTTQKAHLGHCPHCPSVCVPVHSEMLLRVQQLVQDLKKLTCQVATLNNNASTEGTCCPVNWVEHQDSCYWFSHSGMSWAEAEKYCQLKNAHLVVINSREEQNFVQKYLGSAYTWMGLSDPEGAWKWVDGTDYATGFQNWKPGQPDDWQGHGLGGGEDCAHFHPDGGWNDDVCQRPYHWVCEAGLGQTSQESH,glycan array binding signal (z-score),[1],0.521
same,glycan array binding signal (z-score),GalNAc(b1-3)Gal,1.95
same,glycan array binding signal (z-score),[2],3.37
same,glycan array binding signal (z-score),[3],2.3
same,glycan array binding signal (z-score),[4],3.13
same,glycan array binding signal (z-score),GalNAc(b1-3)GalNAc,0.748
same,glycan array binding signal (z-score),GalNAc(b1-3)GlcNAc,1.54
same,glycan array binding signal (z-score),GalNAc(b1-4)Gal(b1-4)Glc,0.003
same,glycan array binding signal (z-score),GalNAc(b1-4)GlcNAc,2.19
same,glycan array binding signal (z-score),[5],1.24
same,glycan array binding signal (z-score),[6],0.951
same,glycan array binding signal (z-score),[7],2.15
same,glycan array binding signal (z-score),GalNAc(b1-4)GlcNAc6S,1.86
same,glycan array binding signal (z-score),GalNAc(b1-6)GalNAc,-0.651
same,glycan array binding signal (z-score),GalNAc3S(b1-4)GlcNAc,-0.356
same,glycan array binding signal (z-score),GalNAc3S(b1-4)GlcNAc3S,0.117
same,glycan array binding signal (z-score),[8],-0.402
same,glycan array binding signal (z-score),GalNAc4S6S(b1-4)GlcNAc,0.29
same,glycan array binding signal (z-score),GalNAc6S(b1-4)GlcNAc,1.58
same,glycan array binding signal (z-score),Glc(a1-4)Glc,-0.292
same,glycan array binding signal (z-score),[9],-0.489
same,glycan array binding signal (z-score),Glc(a1-6)Glc(a1-6)Glc,0.583
same,glycan array binding signal (z-score),[10],0.178
same,glycan array binding signal (z-score),Glc(b1-4)Glc,-0.421
same,glycan array binding signal (z-score),Glc(b1-6)Glc,0.425
same,glycan array binding signal (z-score),GlcA(b1-3)Gal,-0.156
same,glycan array binding signal (z-score),GlcA(b1-3)GlcNAc,-0.594
same,glycan array binding signal (z-score),GlcA(b1-6)Gal,-0.381
same,glycan array binding signal (z-score),[11],-0.33
same,glycan array binding signal (z-score),[12],-0.375
same,glycan array binding signal (z-score),[13],0.005
same,glycan array binding signal (z-score),[14],-0.558
same,glycan array binding signal (z-score),[15],-0.054
same,glycan array binding signal (z-score),[16],-0.082
same,glycan array binding signal (z-score),[17],-0.062
same,glycan array binding signal (z-score),[18],-0.219
same,glycan array binding signal (z-score),[19],-0.481
same,glycan array binding signal (z-score),[20],-0.407
